The supplement of paper PMC11417369
Some of the results follow.

test system: PF3D7_0420300 AP2 domain 1 (GST-tagged); assay: gcPBM binding intensity (ln(normalized median fluorescence intensity)); higher = stronger DNA binding
Method in brief: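 In this array assay, P. falciparum DNA-binding domains with a GST tag, expressed in E. coli, were applied for 1 h to primer-extended double-stranded 36-bp intergenic genomic probes and negative controls on an Agilent 4 × 180k array. Bound protein was visualised with Alexa488 anti-GST antibody at 488 nm. Binding intensity is the highest Masliner-normalised natural-log median intensity across replicate spots of either probe orientation.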

Sequence	gcPBM binding intensity (ln)
TATAACTTTTATAGGTGTACCCAATATTATATATAG [XGTACX_site7673]	8.99
CCATCTTTTTTACGATGTACAAGTATAAGGTATACG [XGTACX_site2697]	9.04
TATATATAATAAGAAGGTACACGTAAGTAATAATTT [XGTACX_site934]	9.67
TTTATATGTTTTGTATTTTTAATAAATATTTTATTA [TGCATGCA_negctrl_site20]	9.29
AAATAAATAAATTAACGTACATAATAACATTAATAT [XGTACX_site8567]	9.47
ATATATATATATGTATGTACACATATTTTTTAACTT [XGTACX_site431]	9.35
TATATATATATTATTAGTACTTATTTTTTTTCATAT [XGTACX_site1279]	9.45
TGTAAAACCTCCTACACACACCAATTAACTATTCTA [CACACA_site7074]	9.59
TTATATTATAGACACACACACAAAAAAAAAAAAAAA [CACACA_site3816]	9.81
AATATAATTATATGTGGTACAGAAATAATATAAAAT [XGTACX_site2366]	9.51
TTCTTTTTTTTTCTGGGTACATATATTCCAATCACT [XGTACX_site4770]	9.51
TTATAAAAGACAAAAGTGCATATATACATATGTATA	9.19
CTACATACAAGAATTAAACACACACTAATTATAAAT [CACACA_site8986]	9.75
CCTCAATATTCACATACACACAATATCATCGAAGTA [CACACA_site1676]	9.6
TTATAATTTTAATGTGCACACAATTAAAATATTATA [CACACA_site5172]	8.99
TATAAATAAATATACACACACACATATAAATATGTA [CACACA_site6504]	10.1
TATTGACAAAAAAAAAAAAGGTAAAAAAGAAAGAAA [GTGCAC_negctrl_site418]	9.3
TTTTGTTTATGTGTGCATTATATTATATTTTTTATT [TGCATGCA_negctrl_site146]	9.76
TGTAAGAAATTGAGCGCACACATACATCTGTGGGAT [CACACA_site4945]	9.55
AAAGAAAGGAATACGACACACAAAAAAAAAATATAT [CACACA_site1934]	10
TAGTTGCACATGTATACACACAAAAAATATTTTATG [CACACA_site475]	9.48
AATAAATATAGGTACACACACAAATATGTACATATC [CACACA_site6976]	9.91
AAGAAACCATAATATGCATGCACATATTAATAAATA [TGCATGCA_site693]	9.37

Sequence	gcPBM binding intensity (ln)
AAGTGGTTATAATCAACACACGTGGAATGTACTTTA [CACACA_site3700]	9.34
AAATATTTTAACGAGAGTACATAATAACAATTTATG [XGTACX_site3865]	9.32
GAAAGAATAAAATTTACACACATATATAAATACATA [CACACA_site5273]	9.61
TTTTTTTTTTTTTATTGTACTAAATTATAGAGGGGA [XGTACX_site2609]	8.79
AAAAAAAAAAAATACACACACACATATATATATATA [CACACA_site731]	9.79
ATAAAACAACACACTTGTACTAATTTTTTTTTTTTT [XGTACX_site8377]	9.32
TAATTTATAAGGTATAACAACAATTGCATCTATCAC [XGTACX_negctrl_site314]	9.22
TGAATAAATAGACACACACACATATATAAATATGTA [CACACA_site6159]	10
TTTTTTTTTTTTTTGACACACATAATAAAATACAAA [CACACA_site3080]	8.94
AATAAGCATATACAAACATGCATACATATAAATAAA [TGCATGCA_site338]	9.3
GAAACGATTTAATACACACACGTATTATAGATATAT [CACACA_site6666]	9.63
TATATATTTGTAACGGGTACGTAGGTGTATATTCCA [XGTACX_site6028]	9.4
AGCCACGTGGTATATACACACATAATCAAATAAAAT [CACACA_site9364]	9.68
TCTATAAAGGAATATACACACATATATAAATATGTA [CACACA_site6332]	9.41
TTTTGTTATAAATAATGTACATATTTATTTAAAATT [XGTACX_site6610]	8.93
AAAAACAGAAATGTAACACACAAAAATTCTATTTAT [CACACA_site4026]	9.62
TATAAAAATGTGCACACACACACATATTTATATTTA [CACACA_site6826]	9.84
AACCTTTATATGTAAAGTACAAAAAAGAGTAAAAAA [XGTACX_site5506]	9.2
AAAATCATTCCAAAGACATGCATTTTGCAAATAAAA [TGCATGCA_site461]	8.95
TATATTATATACCATTGTACATATAATATAGGTTCT [XGTACX_site7047]	9.27
ACAAGTTTTTTTTTATCACACACAAAAAAAAAAATA [CACACA_site8377]	9.35
TATTTACCCTCATGTTGTACTTTTCATTCATTTTAT [XGTACX_site7794]	9.69
AACATACATAGACACACACACACACGCACACGCACA [CACACA_site6373]	10.3

Sequence	gcPBM binding intensity (ln)
GAAAATACGTTTAATCGTACATATATATAATATATA [XGTACX_site4243]	9.09
ATTAATTATAATGTATGTACATAACTTTTTTATATT [XGTACX_site5784]	9.31
TTTATTATTTTTAGGAGTACACAAAATAAAACAAAT [XGTACX_site8841]	9.09
AGAAAAGTTTAATACAGTACATAAACAAAGTATAGG [XGTACX_site2386]	9.48
GTATATTTATAGCCTTTATTATATTTAATATTATTA [TGCATGCA_negctrl_site26]	9.44
TATAATATTATATATAAACACACATACACATGTAAA [CACACA_site8631]	9.63
GTTATATTTTTTTATACACACTGGAATATATAAATA [CACACA_site4282]	9.35
ATAATTATATATTTATGTACGCATAAATATTTATAT [XGTACX_site5765]	9.14
TATTTATTGTGATACTACTATTATTTTATGATTAAA [CACACA_negctrl_site284]	9.25
ACCCAATTTTAAAATGAACACACATGTTTTTCTTAC [CACACA_site8246]	9.52
TATACAACTTTATGAAGTACAAAAAGTTCTATATAT [XGTACX_site3866]	8.99
TTGTTTTATTATTCGATGCACTACAGAAATATATTC	9.16
TATATATAACTTTATTGTACAAAATATTATGTATTC [XGTACX_site981]	9.19
TTATATTATTTTTAATGTACTTTTTATGAATACAAA [XGTACX_site689]	9.01
AACTATATCATTTATTTTATTTTTTAAATACATTTA [CACACA_negctrl_site183]	9.12
AATATATGTATGTACGCATGTATGTATCTATGTATT [TGCATGCA_site389]	9.36
TTATAATTATATACATGTACATATAATACATATATA [XGTACX_site8904]	9.08
ATATGGGTAATGAATTGTACTCTTTCTTGTTGTTCT [XGTACX_site4487]	9.65
TGTAATAAATAGTACACACACACATATTTATATATC [CACACA_site6770]	10.1
GTATAATTTTCGTATTCACACAAGAATATACTACAT [CACACA_site4877]	9.37
TATACATATTTTATAGCACACAAATAATAATATGTA [CACACA_site8129]	9.23
CCAACTATATTATGAAGTACATATATATTATATATA [XGTACX_site5767]	9.13
AAACCTACATAACATACACACGCATATATATAATTT [CACACA_site8923]	9.69

Sequence	gcPBM binding intensity (ln)
TTTTTTTTTTTTTATTGTACATGCAAAAAATTCCAC [XGTACX_site2371]	8.85
GTAAGTATATATAAATGTACTTATGAGGTCAAATTA [XGTACX_site3392]	9.24
TTGGGTATTTTGTGCGCACACACATGCAAAAAGAAA [CACACA_site8299]	9.44
TCTGTATTTCCTTATGCATGCATTAGCAAGATAATA [TGCATGCA_site483]	9.23
ATATATATATATTGTAGTACTTATTAAATTATTTAT [XGTACX_site6235]	9.38
TAAGTATACTCATACACACACACACTAGAAAAAAAA [CACACA_site4397]	10
AGAGATACATAAAAAAGTACATATAAAATTTAGGAA [XGTACX_site7201]	9.38
TATTTATTTATATACACACACTTGTATAAAAAATGT [CACACA_site7048]	9.5
TGCGACCATAATAAAGCACACAATGAAAAATATATA [CACACA_site256]	9.49
TACAAATTAATATGTACACACAAATATATATATATA [CACACA_site1977]	9.49
ATAATATGAAACTAAGGTACACATATATTAACAGAG [XGTACX_site3842]	9.52
TGTGCTCAAAATTATGCACACACCTAAAATTAATTT [CACACA_site8950]	9.4
ATGAGAAAATATATTATTTTATATGAACAAGTTTAT [XGTACX_negctrl_site372]	9.02
AAAATTATATATTATAGTACATAAAATATTGATAAA [XGTACX_site8988]	9.05
AAATGTTATATATAATGTACTTGTAAGAACGTTCCT [XGTACX_site2840]	9.21
AATAATGTATGAAATAAACACACAAGTAAGTACATA [CACACA_site8776]	9.7
ATAATTTTAAATAAATGTACATATAGATGTGTGTAA [XGTACX_site3958]	9.39
TTTTTTTTTTATGTTATTAAAAAAAAAAAAAATTAA [CACACA_negctrl_site222]	8.56
AAGATACACTTAATCGCACACGAAATTATATATTTA [CACACA_site3063]	9.23
TATAACATTGTATGAATGCACTTTTATCTATTTTAA [GTGCAC_site9903]	9.17
